Laboratory results: article PMC4351987
Results are given in words; binding and its absence hold for the method and conditions named. In cells and extracts the contact can be indirect. Some results given as binding are weak or reduced against the parent protein; the word gives no strength. Where a sequence is shown, tags or fusion partners need not be part of it.

T1: Brome mosaic virus (BMV) 1a protein (brome mosaic virus) (UniProt P03588)
T1 sequence: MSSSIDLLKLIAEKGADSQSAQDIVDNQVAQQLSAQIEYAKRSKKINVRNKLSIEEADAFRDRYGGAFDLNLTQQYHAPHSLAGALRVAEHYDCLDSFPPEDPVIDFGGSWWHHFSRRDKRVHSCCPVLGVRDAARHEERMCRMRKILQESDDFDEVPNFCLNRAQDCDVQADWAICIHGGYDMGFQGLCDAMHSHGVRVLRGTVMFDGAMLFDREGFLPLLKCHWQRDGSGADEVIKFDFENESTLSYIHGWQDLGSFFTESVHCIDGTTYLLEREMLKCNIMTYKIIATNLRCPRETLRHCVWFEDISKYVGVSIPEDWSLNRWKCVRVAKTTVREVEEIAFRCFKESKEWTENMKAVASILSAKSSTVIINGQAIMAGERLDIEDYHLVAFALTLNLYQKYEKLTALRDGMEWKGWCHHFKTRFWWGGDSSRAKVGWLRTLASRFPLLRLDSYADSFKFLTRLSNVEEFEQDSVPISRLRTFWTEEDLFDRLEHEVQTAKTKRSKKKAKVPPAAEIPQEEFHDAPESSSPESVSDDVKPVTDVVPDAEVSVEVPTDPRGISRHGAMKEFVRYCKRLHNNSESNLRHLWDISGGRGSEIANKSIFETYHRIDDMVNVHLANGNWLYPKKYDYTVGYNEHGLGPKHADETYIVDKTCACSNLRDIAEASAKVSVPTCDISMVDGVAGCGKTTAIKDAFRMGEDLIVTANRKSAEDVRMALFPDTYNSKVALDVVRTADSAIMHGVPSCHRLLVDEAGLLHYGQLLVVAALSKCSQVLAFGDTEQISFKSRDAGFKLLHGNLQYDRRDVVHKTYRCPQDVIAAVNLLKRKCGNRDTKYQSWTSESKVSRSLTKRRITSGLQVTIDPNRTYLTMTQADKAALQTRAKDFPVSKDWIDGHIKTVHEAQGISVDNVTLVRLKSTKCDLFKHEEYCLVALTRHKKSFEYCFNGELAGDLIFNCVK

T2: Rtn1p-GFP (S. cerevisiae) (UniProt Q04947)
T2 sequence: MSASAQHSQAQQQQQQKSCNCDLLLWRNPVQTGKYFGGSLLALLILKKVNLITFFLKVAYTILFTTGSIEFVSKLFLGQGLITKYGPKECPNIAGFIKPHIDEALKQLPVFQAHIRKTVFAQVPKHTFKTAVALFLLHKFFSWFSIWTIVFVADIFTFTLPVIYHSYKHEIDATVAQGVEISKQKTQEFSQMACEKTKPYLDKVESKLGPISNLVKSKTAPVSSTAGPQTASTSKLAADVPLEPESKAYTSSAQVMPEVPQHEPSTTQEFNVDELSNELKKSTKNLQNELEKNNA

T3: Snf7p-HA (S. cerevisiae) (UniProt P39929)
T3 sequence: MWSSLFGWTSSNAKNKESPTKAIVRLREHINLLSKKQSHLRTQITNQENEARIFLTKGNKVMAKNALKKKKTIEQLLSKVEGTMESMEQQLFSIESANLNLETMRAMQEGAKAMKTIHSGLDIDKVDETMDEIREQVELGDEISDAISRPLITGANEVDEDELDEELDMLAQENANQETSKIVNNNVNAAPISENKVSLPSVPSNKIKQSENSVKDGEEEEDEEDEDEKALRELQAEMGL

T4: Vps20p-HA (S. cerevisiae) (UniProt Q04272)
T4 sequence: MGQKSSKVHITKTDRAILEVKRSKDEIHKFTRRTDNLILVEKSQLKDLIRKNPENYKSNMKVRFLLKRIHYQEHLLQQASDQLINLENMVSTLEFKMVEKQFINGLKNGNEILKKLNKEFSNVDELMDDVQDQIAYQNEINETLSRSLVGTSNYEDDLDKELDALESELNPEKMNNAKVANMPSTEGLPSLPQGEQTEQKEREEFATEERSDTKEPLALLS

T5: Vps23p-HA (S. cerevisiae) (UniProt P25604)
T5 sequence: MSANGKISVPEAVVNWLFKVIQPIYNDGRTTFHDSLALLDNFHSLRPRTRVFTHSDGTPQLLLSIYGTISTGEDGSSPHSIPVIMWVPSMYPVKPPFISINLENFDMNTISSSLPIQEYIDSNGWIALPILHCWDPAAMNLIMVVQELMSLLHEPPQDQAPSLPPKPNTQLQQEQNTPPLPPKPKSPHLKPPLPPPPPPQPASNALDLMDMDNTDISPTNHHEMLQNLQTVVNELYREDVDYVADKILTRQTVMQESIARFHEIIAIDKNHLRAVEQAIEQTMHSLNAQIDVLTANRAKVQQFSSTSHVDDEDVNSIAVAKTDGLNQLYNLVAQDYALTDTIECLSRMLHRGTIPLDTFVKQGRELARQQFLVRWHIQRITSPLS

T6: Vps4p-HA (S. cerevisiae) (UniProt P52917)
T6 sequence: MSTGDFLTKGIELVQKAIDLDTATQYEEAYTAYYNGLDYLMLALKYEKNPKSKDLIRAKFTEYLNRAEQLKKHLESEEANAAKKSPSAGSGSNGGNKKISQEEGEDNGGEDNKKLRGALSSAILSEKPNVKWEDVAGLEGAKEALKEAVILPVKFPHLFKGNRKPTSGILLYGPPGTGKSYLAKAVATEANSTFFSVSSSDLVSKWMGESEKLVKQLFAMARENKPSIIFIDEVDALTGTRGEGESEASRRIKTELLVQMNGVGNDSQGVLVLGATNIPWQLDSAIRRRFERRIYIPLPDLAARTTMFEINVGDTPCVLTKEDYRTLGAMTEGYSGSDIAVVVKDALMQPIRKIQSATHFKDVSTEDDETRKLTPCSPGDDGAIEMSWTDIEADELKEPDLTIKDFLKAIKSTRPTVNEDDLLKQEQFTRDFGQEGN

T7: Vta1p-HA (S. cerevisiae) (UniProt Q06263)
T7 sequence: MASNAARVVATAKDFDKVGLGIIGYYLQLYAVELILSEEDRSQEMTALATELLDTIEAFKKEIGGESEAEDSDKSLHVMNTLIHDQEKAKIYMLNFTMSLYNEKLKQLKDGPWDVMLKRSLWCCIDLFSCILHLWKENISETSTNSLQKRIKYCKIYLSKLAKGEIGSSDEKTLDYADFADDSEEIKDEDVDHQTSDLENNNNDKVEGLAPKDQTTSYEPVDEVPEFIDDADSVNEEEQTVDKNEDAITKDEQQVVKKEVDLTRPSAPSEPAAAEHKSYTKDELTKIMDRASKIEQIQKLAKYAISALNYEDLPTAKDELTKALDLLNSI

B1: Snf7p-HA (protein, UniProt P39929 1-240)
chain: T3 sequence
B2: Brome mosaic virus (BMV) 1a protein (protein, UniProt P03588 1-961)
chain: T1 sequence

Legend:
[1] = target: T1, Brome mosaic virus (BMV) 1a protein (brome mosaic virus); assay: co-IP; vps4Δ yeast expressing HA-tagged ESCRT proteins with or without 1a; lysed in RIPA buffer (1% NP-40, 0.1% SDS, 0.5% sodium deoxycholate, 150 mM NaCl, Tris pH 8.0); anti-1a or anti-HA antibodies and Protein A Sepharose overnight at 4°C; immunoblot with anti-1a or anti-HA
[2] = target: T2, Rtn1p-GFP (S. cerevisiae); assay: co-IP; yeast expressing Rtn1p-GFP (chromosomal) and Snf7p-HA with or without 1a; RIPA lysate; IP with anti-GFP antibody and Protein A Sepharose; immunoblot with anti-1a, anti-GFP or anti-HA
Snf7p-HA (S. cerevisiae) = target: T3, Snf7p-HA (S. cerevisiae); assay: co-IP; vps4Δ yeast expressing HA-tagged ESCRT proteins with or without 1a; lysed in RIPA buffer (1% NP-40, 0.1% SDS, 0.5% sodium deoxycholate, 150 mM NaCl, Tris pH 8.0); anti-1a or anti-HA antibodies and Protein A Sepharose overnight at 4°C; immunoblot with anti-1a or anti-HA
[3] = target: T4, Vps20p-HA (S. cerevisiae); assay: as above
[4] = target: T5, Vps23p-HA (S. cerevisiae); assay: as above
Vps4p-HA (S. cerevisiae) = target: T6, Vps4p-HA (S. cerevisiae); assay: as above
Vta1p-HA (S. cerevisiae) = target: T7, Vta1p-HA (S. cerevisiae); assay: as above

Row | Binder | binding [1] | binding [2] | binding (Snf7p-HA (S. cerevisiae)) | binding [3] | binding [4] | binding (Vps4p-HA (S. cerevisiae)) | binding (Vta1p-HA (S. cerevisiae))
1 | B1 | binds | no binding |  |  |  |  | 
2 | B2 |  | binds | binds | no binding | no binding | no binding | no binding
